Data: patent publication US11633459B2, “GIP derivatives and uses thereof” (priority 2018, dated 2023)
At least one compound was matched to its structure with a doubt left. *1 amine or outer side, *2 acyl side, *3 side chain or, on linkers, in order; H or OH if unused. Where a SMILES comes first, the peptide text is derived from it. Side-chain parts run from the residue outwards. [ ]: non-standard residue; d: D form. The star is where a group is joined. X1 = O=C(O)CCCCCCCCCCCCCCCCCCC(=O)NCC1CCC(C(=O)*)CC1; γGlu = O=C(O)[C@H](CCC(=O)[*:2])N[*:1]; Nle = CCCC[C@H](N)C(=O)O; Aib = CC(C)(N)C(=O)O

Columns and labels:
[1] = Chemical stability: HMWP formation by SEC-MS; type: physicochemical; conditions: 250 μM, pH 7.4, 37° C., 4 weeks
Procedure: The aim of this study is to determine the chemical stability of GIP derivative compositions. As a measure of stability of the GIP derivative composition, the formation of high molecular weight peptide formation (% HMWP) as a function of time was analysed by size-exclusion chromatography (SEC-MS). Further, the purity loss of the GIP derivative compositions was measured by LCMS. Samples for chemical stability assays were freshly prepared before each assay. […] The pH of the sample was adjusted to the desired value using appropriate amounts of concentrated NaOH and HCl. […] Formation of covalent oligomers (HMWPs) was analysed and identified by a SEC-MS method. […] The LC system was coupled to both a TUV detector operated at 215 nm, 10 Hz and a high resolution QToF mass spectrometer from Waters (Synapt G2S) operated in positive ion mode and m/z range of 100 to 4000 with normal resolution setting. Lock mass correction against Leu-Enkephalin was done every 31 sec. Spectra were processed in MassLynx version 4.1 and MaxEnt deconvoluted.

[2] = Chemical stability: purity loss by LCMS; type: physicochemical; conditions: 250 μM, pH 7.4, 37° C., 4 weeks

| Compound | HMWP formation (%/month) [1] [%/month] | Purity loss (%/month) [2] [%/month] |
| --- | --- | --- |
| CCCC[C@H](NC(=O)[C@H](C)NC(=O)[C@@H](NC(=O)[C@H](CO)NC(=O)[C@H](Cc1ccc(O)cc1)NC(=O)[C@H](CC(=O)O)NC(=O)[C@H](CO)NC(=O)[C@@H](NC(=O)[C@H](Cc1ccccc1)NC(=O)[C@@H](NC(=O)CNC(=O)[C@H](CCC(=O)O)NC(=O)[C@H](C)NC(=O)[C@@H](Cc1ccc(O)cc1)NC(C)=O)[C@@H](C)O)[C@@H](C)CC)[C@@H](C)CC)C(=O)N[C@@H](CC(=O)O)C(=O)N[C@@H](CCCCN)C(=O)N[C@H](C(=O)N[C@@H](Cc1c[nH]cn1)C(=O)N[C@@H](CCC(N)=O)C(=O)N[C@@H](CCC(=O)O)C(=O)N[C@@H](CC(=O)O)C(=O)N[C@@H](Cc1ccccc1)C(=O)N[C@H](C(=O)N[C@@H](CCCCNC(=O)CC[C@H](NC(=O)CC[C@H](NC(=O)CC[C@H](NC(=O)C1CCC(CNC(=O)CCCCCCCCCCCCCCCCCCC(=O)O)CC1)C(=O)O)C(=O)O)C(=O)O)C(=O)N[C@@H](Cc1c[nH]c2ccccc12)C(=O)N[C@@H](CC(C)C)C(=O)N[C@@H](CC(C)C)C(=O)N[C@@H](C)C(=O)N[C@@H](CCC(N)=O)C(=O)N[C@@H](CCCCN)C(=O)NCC(=O)O)C(C)C)[C@@H](C)CC (stereo partly drawn) [Compound 22, N{1}-acetyl,N{Epsilon-24}-[(4S)-4-carboxy-4-[[(4S)-4-carboxy-4-[[(4S)-4-carboxy-4-[[4-[(19-carboxynonadecanoylamino)methyl]cyclohexanecarbonyl]amino]butanoyl]-amino]butanoyl]amino]butanoyl]-[D-Tyr1,Nle14,Glu20,Lys24]-hGIP(1-31)] (Ac-[dY]AEGTFISDYSIA[Nle]DKIHQEDFVK([γGlu-γGlu-γGlu-X1])WLLAQKG-OH) | 0.10 | 4.80 |
| CCCC[C@H](NC(=O)[C@H](C)NC(=O)[C@@H](NC(=O)[C@H](CO)NC(=O)[C@H](Cc1ccc(O)cc1)NC(=O)[C@H](CC(=O)O)NC(=O)[C@H](CO)NC(=O)[C@@H](NC(=O)[C@H](Cc1ccccc1)NC(=O)[C@@H](NC(=O)CNC(=O)[C@H](CCC(=O)O)NC(=O)[C@H](C)NC(=O)[C@@H](Cc1ccc(O)cc1)NC(C)=O)[C@@H](C)O)[C@@H](C)CC)[C@@H](C)CC)C(=O)N[C@@H](CC(=O)O)C(=O)N[C@@H](CCCCN)C(=O)N[C@H](C(=O)N[C@@H](Cc1c[nH]cn1)C(=O)N[C@@H](CCC(N)=O)C(=O)NC(C)(C)C(=O)N[C@@H](CC(=O)O)C(=O)N[C@@H](Cc1ccccc1)C(=O)N[C@H](C(=O)N[C@@H](CCCCNC(=O)CC[C@H](NC(=O)CC[C@H](NC(=O)CC[C@H](NC(=O)C1CCC(CNC(=O)CCCCCCCCCCCCCCCCCCC(=O)O)CC1)C(=O)O)C(=O)O)C(=O)O)C(=O)N[C@@H](Cc1c[nH]c2ccccc12)C(=O)N[C@@H](CC(C)C)C(=O)N[C@@H](CC(C)C)C(=O)N[C@@H](C)C(=O)N[C@@H](CCC(N)=O)C(=O)N[C@@H](CCCCN)C(=O)NCC(=O)O)C(C)C)[C@@H](C)CC (stereo partly drawn) [Compound 24, N{1}-acetyl,N{Epsilon-24}-[(4S)-4-carboxy-4-[[(4S)-4-carboxy-4-[[(4S)-4-carboxy-4-[[4-[(19-carboxynonadecanoylamino)methyl]cyclohexanecarbonyl]amino]butanoyl]-amino]butanoyl]amino]butanoyl]-[D-Tyr1,Nle14,Aib20,Lys24]-hGIP(1-31)] (Ac-[dY]AEGTFISDYSIA[Nle]DKIHQ[Aib]DFVK([γGlu-γGlu-γGlu-X1])WLLAQKG-OH) | 0.70 | 3.60 |
| CCCC[C@H](NC(=O)[C@H](C)NC(=O)[C@@H](NC(=O)[C@H](CO)NC(=O)[C@H](Cc1ccc(O)cc1)NC(=O)[C@H](CC(=O)O)NC(=O)[C@H](CO)NC(=O)[C@@H](NC(=O)[C@H](Cc1ccccc1)NC(=O)[C@@H](NC(=O)CNC(=O)[C@H](CCC(=O)O)NC(=O)C(C)(C)NC(=O)[C@@H](N)Cc1ccc(O)cc1)[C@@H](C)O)[C@@H](C)CC)[C@@H](C)CC)C(=O)N[C@@H](CC(=O)O)C(=O)N[C@@H](CCCCN)C(=O)N[C@H](C(=O)N[C@@H](CCCNC(=N)N)C(=O)N[C@@H](CCC(N)=O)C(=O)N[C@@H](CCC(N)=O)C(=O)N[C@@H](CC(=O)O)C(=O)N[C@@H](Cc1ccccc1)C(=O)N[C@H](C(=O)N[C@@H](CCCCNC(=O)CC[C@H](NC(=O)CC[C@H](NC(=O)CC[C@H](NC(=O)C1CCC(CNC(=O)CCCCCCCCCCCCCCCCCCC(=O)O)CC1)C(=O)O)C(=O)O)C(=O)O)C(=O)N[C@@H](Cc1c[nH]c2ccccc12)C(=O)N[C@@H](CC(C)C)C(=O)N[C@@H](CC(C)C)C(=O)N[C@@H](C)C(=O)N[C@@H](CCC(N)=O)C(=O)N[C@@H](CCCCN)C(=O)N1CCC[C@H]1C(N)=O)C(C)C)[C@@H](C)CC (stereo partly drawn) [Compound 26, N{Epsilon-24}-[(4S)-4-carboxy-4-[[(4S)-4-carboxy-4-[[(4S)-4-carboxy-4-[[4-[(19-carboxynonadecanoylamino)methyl]cyclohexanecarbonyl]amino]butanoyl]amino]-butanoyl]amino]butanoyl]-[Aib2,Nle14,Arg18,Lys24,Pro31]-hGIP(1-31) amide] | 1.30 | 4.40 |
| CCCC[C@H](NC(=O)[C@H](C)NC(=O)[C@@H](NC(=O)[C@H](CO)NC(=O)[C@H](Cc1ccc(O)cc1)NC(=O)[C@H](CC(=O)O)NC(=O)[C@H](CO)NC(=O)[C@@H](NC(=O)[C@H](Cc1ccccc1)NC(=O)[C@@H](NC(=O)CNC(=O)[C@H](CCC(=O)O)NC(=O)[C@H](C)NC(=O)[C@@H](Cc1ccc(O)cc1)NC(C)=O)[C@@H](C)O)[C@@H](C)CC)[C@@H](C)CC)C(=O)N[C@@H](CC(=O)O)C(=O)N[C@@H](CCCCN)C(=O)N[C@H](C(=O)N[C@@H](Cc1c[nH]cn1)C(=O)N[C@@H](CCC(N)=O)C(=O)N[C@@H](CCC(N)=O)C(=O)N[C@@H](CC(=O)O)C(=O)N[C@@H](Cc1ccccc1)C(=O)N[C@H](C(=O)N[C@@H](CCCCNC(=O)CC[C@H](NC(=O)CC[C@H](NC(=O)CC[C@H](NC(=O)C1CCC(CNC(=O)CCCCCCCCCCCCCCCCCCC(=O)O)CC1)C(=O)O)C(=O)O)C(=O)O)C(=O)N[C@@H](Cc1c[nH]c2ccccc12)C(=O)N[C@@H](CC(C)C)C(=O)N[C@@H](CC(C)C)C(=O)N[C@@H](C)C(=O)N[C@@H](CCC(N)=O)C(=O)N[C@@H](CCCCN)C(=O)N1CCC[C@H]1C(N)=O)C(C)C)[C@@H](C)CC (stereo partly drawn) [Compound 29, N{1}-acetyl,N{Epsilon-24}-[(4S)-4-carboxy-4-[[(4S)-4-carboxy-4-[[(4S)-4-carboxy-4-[[4-[(19-carboxynonadecanoylamino)methyl]cyclohexanecarbonyl]amino]butanoyl]-amino]butanoyl]amino]butanoyl]-[D-Tyr1,Nle14,Lys24,Pro31]-hGIP(1-31) amide] (Ac-[dY]AEGTFISDYSIA[Nle]DKIHQQDFVK([γGlu-γGlu-γGlu-X1])WLLAQKP-NH2) | 0.31 | 2.10 |
| CCCC[C@H](NC(=O)[C@H](C)NC(=O)[C@@H](NC(=O)[C@H](CO)NC(=O)[C@H](Cc1ccc(O)cc1)NC(=O)[C@H](CC(=O)O)NC(=O)[C@H](CO)NC(=O)[C@@H](NC(=O)[C@H](Cc1ccccc1)NC(=O)[C@@H](NC(=O)CNC(=O)[C@H](CCC(=O)O)NC(=O)C(C)(C)NC(=O)[C@@H](Cc1ccc(O)cc1)NC(C)=O)[C@@H](C)O)[C@@H](C)CC)[C@@H](C)CC)C(=O)N[C@@H](CC(=O)O)C(=O)N[C@@H](CCCCN)C(=O)N[C@H](C(=O)N[C@@H](Cc1c[nH]cn1)C(=O)N[C@@H](CCC(N)=O)C(=O)N[C@@H](CCC(N)=O)C(=O)N[C@@H](CC(=O)O)C(=O)N[C@@H](Cc1ccccc1)C(=O)N[C@H](C(=O)N[C@@H](CCCCNC(=O)CC[C@H](NC(=O)CC[C@H](NC(=O)CC[C@H](NC(=O)C1CCC(CNC(=O)CCCCCCCCCCCCCCCCCCC(=O)O)CC1)C(=O)O)C(=O)O)C(=O)O)C(=O)N[C@@H](Cc1c[nH]c2ccccc12)C(=O)N[C@@H](CC(C)C)C(=O)N[C@@H](CC(C)C)C(=O)N[C@@H](C)C(=O)N[C@@H](CCC(N)=O)C(=O)N[C@@H](CCCCN)C(=O)N1CCC[C@H]1C(N)=O)C(C)C)[C@@H](C)CC (stereo partly drawn) [Compound 32, N{1}-acetyl,N{Epsilon-24}-[(4S)-4-carboxy-4-[[(4S)-4-carboxy-4-[[(4S)-4-carboxy-4-[[4-[(19-carboxynonadecanoylamino)methyl]cyclohexanecarbonyl]amino]butanoyl]-amino]butanoyl]amino]butanoyl]-[D-Tyr1,Aib2, Nle14,Lys24,Pro31]-hGIP(1-31) amide] (Ac-[dY][Aib]EGTFISDYSIA[Nle]DKIHQQDFVK([γGlu-γGlu-γGlu-X1])WLLAQKP-NH2) | 0.66 | 2.80 |
